Source: patent publication US20240182536A1

Experiments:
[1] = molecular target: human IL-18 binding protein (human) (UniProt O95998); test: cell-based or functional assay
[2] = molecular target: IL-18 receptors on HEK-Blue IL-18 reporter cells (UniProt Q13478); test: cell-based or functional assay
Chain of UniProt Q13478 (Q13478 19-541 limits assumed, chain 1 of 2): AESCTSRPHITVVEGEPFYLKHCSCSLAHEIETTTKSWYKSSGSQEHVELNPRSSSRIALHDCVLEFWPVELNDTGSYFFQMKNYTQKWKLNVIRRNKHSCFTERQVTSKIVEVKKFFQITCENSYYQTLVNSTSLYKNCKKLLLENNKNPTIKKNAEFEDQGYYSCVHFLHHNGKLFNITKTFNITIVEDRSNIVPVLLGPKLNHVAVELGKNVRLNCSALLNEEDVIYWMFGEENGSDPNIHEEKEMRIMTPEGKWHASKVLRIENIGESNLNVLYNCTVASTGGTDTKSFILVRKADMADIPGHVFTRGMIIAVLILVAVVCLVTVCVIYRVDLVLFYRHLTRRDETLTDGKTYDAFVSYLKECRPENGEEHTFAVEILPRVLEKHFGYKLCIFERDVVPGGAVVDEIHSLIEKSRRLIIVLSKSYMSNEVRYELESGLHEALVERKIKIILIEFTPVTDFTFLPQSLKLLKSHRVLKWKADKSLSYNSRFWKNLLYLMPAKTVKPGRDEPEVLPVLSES
Chain of UniProt Q13478 (O95256 20-599 limits assumed, chain 2 of 2, further chain): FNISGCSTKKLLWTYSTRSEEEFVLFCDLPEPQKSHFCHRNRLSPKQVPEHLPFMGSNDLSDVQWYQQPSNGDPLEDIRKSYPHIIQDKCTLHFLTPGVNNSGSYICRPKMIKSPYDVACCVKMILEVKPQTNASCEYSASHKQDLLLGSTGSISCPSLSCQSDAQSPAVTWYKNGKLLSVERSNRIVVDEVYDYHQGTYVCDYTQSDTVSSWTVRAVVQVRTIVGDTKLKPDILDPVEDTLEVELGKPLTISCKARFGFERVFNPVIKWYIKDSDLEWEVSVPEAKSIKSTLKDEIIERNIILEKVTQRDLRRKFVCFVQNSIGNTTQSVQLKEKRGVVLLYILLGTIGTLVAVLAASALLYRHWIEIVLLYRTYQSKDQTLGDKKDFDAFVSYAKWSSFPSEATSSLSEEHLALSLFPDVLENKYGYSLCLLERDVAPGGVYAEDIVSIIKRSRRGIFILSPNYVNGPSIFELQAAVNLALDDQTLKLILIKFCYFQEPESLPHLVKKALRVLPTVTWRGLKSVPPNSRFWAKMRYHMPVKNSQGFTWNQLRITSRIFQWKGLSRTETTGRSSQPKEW

Chain of UniProt O95998 (O95998 31-194 limits assumed): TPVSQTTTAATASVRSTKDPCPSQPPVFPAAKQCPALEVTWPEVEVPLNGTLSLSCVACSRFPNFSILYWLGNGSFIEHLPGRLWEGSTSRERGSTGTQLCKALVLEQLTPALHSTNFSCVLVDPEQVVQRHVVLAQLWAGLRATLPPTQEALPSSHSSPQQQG

B1: Comparator 1-HSA-his-avi (protein, not shown: small tags and cut ends)
chain: YFGKLESKLSVIRNLNDQVLFIDQGNRPLFEDMTDSDCRDNAPRTIFIISKYSDSLARGLAVTISVKCEKISTLSCENKIISFKEMNPPDNIKDTKSDIIFFQRDVPGHSRKMQFESSSYEGYFLACEKERDLFKLILKKEDELGDRSIMFTVQNEDDAHKSEVAHRFKDLGEENFKALVLIAFAQYLQQCPFEDHVKLVNEVTEFAKTCVADESAENCDKSLHTLFGDKLCTVATLRETYGEMADCCAKQEPERNECFLQHKDDNPNLPRLVRPEVDVMCTAFHDNEETFLKKYLYEIARRHPYFYAPELLFFAKRYKAAFTECCQAADKAACLLPKLDELR[letters of about 200 residues not shown]NLIKQNCELFEQLGEYKFQNALLVRYTKKVPQVSTPTLVEVSRNLGKVGSKCCKHPEAKRMPCAEDCLSVFLNQLCVLHEKTPVSDRVTKCCTESLVNGRPCFSALEVDETYVPKEFNAETFTFHADICTLSEKERQIKKQTALVELVKHKPKATKEQLKAVMDDFAAFVEKCCKADDKETCFAEEGKKLVAASQAALGL
[1]
  HEK-blue EC50 (pM) + 300 nM IL-18BP: 0.27 pM
[2]
  HEK-blue EC50 (pM) - IL-18BP: 0.28 pM
